PubChem BioAssay AID2675 (National Center for Advancing Translational Sciences (NCATS), 2010)
Hit rate of the full screen: of about 280,000 compounds, about 100 (0.036%) were called active. The shares of active, inactive and inconclusive entries below differ from those in the screen. Calls come from the whole dose curve; as a rule, active = well fitted inhibition curve with a large enough effect in the signal ratio, with a control signal flat (not every such curve was filed as active); inconclusive = small, poorly fitted or top-dose-only effect, or effect the other way, or a change in a side signal; inactive = no such curve, though single readings can be large or run the other way; the % refers to the signal ratio. A potency beside an inconclusive call is a rough fit, not a confirmed value. A note “side channel” means that the fit belongs to a control or component signal, not to the main read-out.

Each compound was assayed against Muscleblind-like protein 1 (Homo sapiens) (UniProt Q9NR56) (assay: qHTS Assay for Inhibitors of MBNL1-poly(CUG) RNA binding). Conditions: TR-FRET MBNL1-His/biotin-(CUG)12 binding, 665/545 ratio; series mostly up to 57.5 µM.
Outline: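 TR-FRET between His-tagged MBNL1 and biotin-(CUG)12 RNA, detected with Tb anti-His antibody (0.055 ng/ul) and streptavidin-XL665 (5 nM), 60 min at room temperature. Compounds titrated 92 nM to 58 uM; 665/545 nm ratio normalized to buffer and complex controls.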
Potency is the fitted concentration of half-maximal effect; tags give direction and shape of the fitted curve or compound fluorescence and quenching.

Chain of UniProt Q9NR56 (Q9NR56 whole entry, looked up): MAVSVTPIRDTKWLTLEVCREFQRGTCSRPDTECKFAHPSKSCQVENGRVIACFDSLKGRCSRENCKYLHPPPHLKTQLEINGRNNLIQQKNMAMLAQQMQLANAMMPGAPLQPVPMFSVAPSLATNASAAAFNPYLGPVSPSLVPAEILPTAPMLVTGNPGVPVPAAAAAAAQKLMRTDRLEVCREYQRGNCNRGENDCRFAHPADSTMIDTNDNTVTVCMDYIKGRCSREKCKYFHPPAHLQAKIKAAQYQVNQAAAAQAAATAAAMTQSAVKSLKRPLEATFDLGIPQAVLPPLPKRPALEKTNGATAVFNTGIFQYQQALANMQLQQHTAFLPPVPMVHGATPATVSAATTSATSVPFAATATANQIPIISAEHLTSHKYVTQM

For `NS(=O)(=O)c1ccc(CCNC(=O)C2CCCN(S(=O)(=O)c3cccnc3)C2)cc1` (configuration not stated), which Potency is on record?
The Potency was “inactive”.

Which Potency does the source give for `COc1cccc(C(=O)Oc2ccc3ccc(O)cc3c2)c1` here?
The Potency was “inactive”.

With `CCOC(=O)c1ccc(NNC(C)=O)c([N+](=O)[O-])c1` as the compound, how does the Potency read?
The Potency was inconclusive: 22.4 µM [quencher, partial curve, poor fit].

`Nc1[nH]c2cc([N+](=O)[O-])ccc2c1-c1ccccn1` was tested. Which Potency did it give?
Its Potency is inconclusive: 3.16 µM [quencher, side channel, full curve].

Which Potency does the source give for `CN1CCC(=NNC(=O)CN(c2ccc([N+](=O)[O-])cc2)S(=O)(=O)c2ccccc2)CC1` here?
Its Potency is inconclusive: 28.2 µM [quencher, side channel, partial curve].

Which Potency does the source give for `O=C(NCc1cccnc1)c1cc(Cl)ccc1[N+](=O)[O-]` here?
The Potency was inconclusive: 22.4 µM [quencher, side channel, partial curve, poor fit].

`CCC(=S)/C=C1\Sc2ccccc2N1CCCS(=O)(=O)O` was tested. Which Potency did it give?
The Potency was inconclusive: 14.1 µM [quencher, side channel, partial curve].

How did the Potency turn out when `COC(=O)c1ccncc1C(=O)Nc1ccc(Oc2ncc(C(F)(F)F)cc2Cl)cc1` was run?
Its Potency is inconclusive: 15.8 µM [quencher, side channel, partial curve].

Which Potency does the source give for `CCOC(=O)C1=C(O)/C(=C\c2cccs2)N=C1C` here?
Its Potency is inconclusive: 22.4 µM [quencher, single point].

`COc1ccc(/C=N/NC(=O)c2ccc(Br)o2)cc1Cn1cc([N+](=O)[O-])cn1` was tested. Which Potency did it give?
The Potency was inconclusive: 10 µM [quencher, side channel, partial curve].

With `O=C(N/N=C/c1ccccn1)c1cc([N+](=O)[O-])cc([N+](=O)[O-])c1` as the compound, how does the Potency read?
Its Potency is inconclusive: 3.16 µM [quencher, full curve].

How did the Potency turn out when `CCCCC(=O)N/N=C/c1ccc(Sc2cccc3cccnc23)o1` was run?
Its Potency is inconclusive: 28.2 µM [quencher, side channel, partial curve].

Which Potency does the source give for `CCC1CCCCN1S(=O)(=O)c1ccc2c(c1)CCN2C(=O)C1CCC1` (configuration not stated) here?
The Potency was “inactive”.

How did the Potency turn out when `N=c1c2c(n(Cc3ccc(Br)cc3)c3c1CCC3)CCCC2` was run?
The Potency was “inactive”.

`O=C(CSc1nnnn1-c1ccc(Cl)cc1)NC(=O)Nc1ccc2c(c1)OCCO2` was tested. Which Potency did it give?
Its Potency is inconclusive: 8.91 µM [quencher, side channel, single point].

Which Potency does the source give for `CNc1c(C(=O)O)ccc2c1C(=O)c1ccccc1C2=O` here?
The Potency was inconclusive: 1.26 µM [quencher, side channel, partial curve].

`COc1cc(CCN2C(=O)c3cccc4cccc(c34)C2=O)c(S(=O)(=O)NCCO)cc1OC` was tested. Which Potency did it give?
Its Potency is inconclusive: 15.8 µM [activator, partial curve].

Which Potency does the source give for `Cc1cnc([N+](=O)[O-])n1CCOC(=O)NC(=O)c1ccccc1` here?
The Potency was inconclusive: 20 µM [quencher, side channel, partial curve].

`O=C(c1c[nH]c2ccc(S(=O)(=O)N3CCOCC3)cc2c1=O)N1CCN(c2ccccn2)CC1` was tested. Which Potency did it give?
Its Potency is inconclusive: 35.5 µM [quencher, side channel, single point].

With `Cc1cc(C)n(Cc2ccc(C(=O)NCc3ccco3)o2)n1` as the compound, how does the Potency read?
Its Potency is “inactive”.

Which Potency does the source give for `COc1ccc(CN2C(=O)c3cccnc3C2=O)cc1S(=O)(=O)NCc1ccccc1` here?
The Potency was inconclusive: 12.6 µM [quencher, side channel, partial curve].

How did the Potency turn out when `COc1ccc(C(=O)N2CCN(CCNC(=O)C(=O)Nc3ccc(Br)cc3)CC2)cc1` was run?
Its Potency is “inactive”.

`COc1ccc(/C=N\NC(=O)c2ccc([N+](=O)[O-])c(C)c2)cc1COc1ccccc1C(N)=O` was tested. Which Potency did it give?
The Potency was inconclusive: 25.1 µM [quencher, side channel, partial curve].

Which Potency does the source give for `N#CC(C(=O)NCc1ccco1)c1nc2ccccc2nc1N1CCOCC1` (configuration not stated) here?
The Potency was inconclusive: 25.1 µM [quencher, side channel, single point].

How did the Potency turn out when `Cc1cccc(C)c1OCC(=O)Nc1ccc2c(c1)OCCO2` was run?
The Potency was inconclusive: 63.1 µM [inhibitor, single point].

For `Cc1ccc(NC(=O)CC2(CC(=O)O)CCCC2)c(C)c1`, which Potency is on record?
Its Potency is “inactive”.

`CCOc1ccc(/C=C(\C)C(=O)c2c(C)cc(C)[nH]c2=O)cc1` was tested. Which Potency did it give?
The Potency was inconclusive: 35.5 µM [quencher, side channel, single point].

For `Cc1cc(C)n(Cc2cccc(C(=O)N/N=C/c3ccncc3)c2)n1`, which Potency is on record?
Its Potency is inconclusive: 39.8 µM [quencher, side channel, single point].

With `Cc1ccc(N2C(=O)C(Cl)=C(N3CCCCCC3)C2=O)c(C)c1` as the compound, how does the Potency read?
The Potency was inconclusive: 25.1 µM [quencher, side channel, partial curve].

How did the Potency turn out when `Cn1c(COc2ccccc2)nnc1SCC(=O)c1cccc([N+](=O)[O-])c1` was run?
Its Potency is inconclusive: 3.55 µM [quencher, side channel, full curve, poor fit].

`N#CCc1c(C#N)c(N)nc(N2CCN(S(=O)(=O)c3ccccc3F)CC2)c1C#N` was tested. Which Potency did it give?
Its Potency is inconclusive: 39.8 µM [fluorescent, side channel, single point].

`Nc1nc2nc(-c3cccs3)cc(C(F)(F)F)n2n1` was tested. Which Potency did it give?
Its Potency is inconclusive: 15.8 µM [quencher, side channel, partial curve].

With `NC(=O)CC(NC(=O)Cc1cccc2ccccc12)c1ccc(N2CCC(N3CCCCC3)CC2)c([N+](=O)[O-])c1` (configuration not stated) as the compound, how does the Potency read?
The Potency was inconclusive: 20 µM [quencher, single point].

`CNC(=O)c1cc2cccc(OC)c2oc1=O` was tested. Which Potency did it give?
Its Potency is inconclusive: 0.141 µM [quencher, side channel, full curve, poor fit].

With `O=S(=O)(Cc1ccccc1)NCC1CCCN(Cc2cccc3nonc23)C1` (configuration not stated) as the compound, how does the Potency read?
Its Potency is inconclusive: 31.6 µM [quencher, side channel, partial curve].

`Cc1cc(C(=O)N/N=C/c2cc(Br)ccc2OC(=O)c2ccc(Br)cc2)n[nH]1` was tested. Which Potency did it give?
Its Potency is “inactive”.

Which Potency does the source give for `COc1ccc(CCNS(=O)(=O)c2ccccc2[N+](=O)[O-])cc1OC` here?
The Potency was inconclusive: 31.6 µM [quencher, side channel, single point].
